PubChem BioAssay AID1745853 (National Center for Advancing Translational Sciences (NCATS), 2022)
Some of the results follow. The main result of the screen is listed elsewhere. These columns were measured beside it and carry no call.

Legend:
Experiment in all cases: Primary Screen for Target Class Profiling of Small Molecule Inhibitors of Methyltransferases
[1] = biological target: Glycine N-methyltransferase (Homo sapiens) (UniProt Q14749); details: purified enzyme, MTase-Glo SAH luminescence; measured here: GNMT inhibition; at 40 µM; stronger effect = lower value
Procedure, shortened: (§1)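 Each enzyme was assayed with SAM and its substrate. SAH formation detected by MTase-Glo luminescence; single-point 40 uM screen[…].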

[2] = biological target: Guanidinoacetate N-methyltransferase (Homo sapiens) (UniProt Q14353); details: purified enzyme, MTase-Glo SAH luminescence; measured here: GAMT inhibition; at 40 µM; stronger effect = lower value
Procedure, shortened: as §1

[3] = biological target: Histamine N-methyltransferase (Homo sapiens) (UniProt P50135); details: purified enzyme, MTase-Glo SAH luminescence; measured here: HNMT inhibition; at 40 µM; stronger effect = lower value
Procedure, shortened: as §1

[4] = biological target: Nicotinamide N-methyltransferase (Homo sapiens) (UniProt P40261); details: purified enzyme, MTase-Glo SAH luminescence; measured here: NNMT inhibition; at 40 µM; stronger effect = lower value
Procedure, shortened: as §1

[5] = biological target: Phenylethanolamine N-methyltransferase (Homo sapiens) (UniProt P11086); details: purified enzyme, MTase-Glo SAH luminescence; measured here: PNMT inhibition; at 40 µM; stronger effect = lower value
Procedure, shortened: as §1
% is set by controls: 0 for no effect and ±100 for the full control effect.

SMILES	activity change, negative = inhibition [1] [%]	activity change, negative = inhibition [2] [%]	activity change, negative = inhibition [3] [%]	activity change, negative = inhibition [4] [%]	activity change, negative = inhibition [5] [%]
Cn1cc(C(=O)N2C[C@@H](C(=O)O)[C@H](c3cccc(F)c3)C2)c(=O)[nH]c1=O	-2.12	-2.59	-2.69	-2.07	-1.49
Cc1ccc(Cl)cc1Nc1nn2c(=O)c3ccc(C(=O)NC4CCC(C)CC4)cc3nc2s1 (stereo not given)	2.81	0	2.56	5.84	2
CC(=O)N1CCN2C(=O)N(Cc3ccc(F)cc3)C[C@H]2C1	-14.1	-8.9	-1.81	-15.3	-8.54
Cc1ccccc1C(=O)Nc1ccc(C(=O)N2CCCC(O)c3cc(Cl)ccc32)c(C)c1 (stereo not given)	-10.2	-8.88	4.88	-19.2	-8.91
CC(C)CCC1(O)C(=O)C(C)(C)C(O[C@@H]2O[C@H](CO)[C@@H](O)[C@H](O)[C@H]2O)C(C)(C)C1O (stereo not given in full)	0.617	-2.11	2.9	-13.9	-8.84
O=C(O)/C=C/c1cc2c(cc1O[C@@H]1O[C@H](CO)[C@@H](O)[C@H](O)[C@H]1O)OCO2	2.14	0.309	11.9	-10.9	-7.5
CC1C=CC2CCCCC2C1CCC1CC(O)CC(=O)O1 (stereo not given)	-2	4.19	6.74	-23.6	-7.72
CC1(C(=O)NC2CCCCCCC2)Cn2c(cc3occc32)C(=O)N1Cc1ccco1 (stereo not given)	-0.258	0	7.66	-4.46	4.8
O=C(NC1CCCc2ccccc21)C1CN(C2CCCCC2)C(=O)N1 (stereo not given)	-7.25	-9.38	-4.61	-15.5	2.25
C#CC(=O)N(c1ccc(OC)cc1OC)C(C(=O)NCC(=O)OCC)c1cccs1 (stereo not given)	-7.09	-8.26	10.8	-12.1	2.24
C[C@@H]1CN(C(=O)CCSCc2ccccc2)CC[C@@]1(O)C1CCOCC1	-2.26	-1.93	0.151	-1.16	2.83
NCC1OC(O[C@H]2[C@H](O)[C@@H](OC3C(O)C(N)CC(N)C3OC3OC(CO)C(O)C(O)C3N)O[C@@H]2CO)C(N)C(O)C1O (stereo not given in full)	7.83	12.3	11.7	-4.36	1.82
Cc1cn2nc(C(=O)NCC(C)c3ccccc3)cc2c(N2CCSCC2)n1 (stereo not given)	-4.75	1.57	-10.7	-9.65	-0.411
CCC(C)NC(=O)c1ccc2c(=O)n(CCC(C)C)c3nn(CC(=O)Nc4ccc(C)cc4)c(=O)n3c2c1 (stereo not given)	6.24	0	6.08	4.5	3.35
COC(=O)CNC(=O)c1cc(-c2cnccc2Cl)c2cccn2n1	-15.8	-1.73	-5.33	-12	-2.65
O=C(c1ccc(Cl)cc1)N1CCC(N2CCOC2=O)CC1	-2.39	-8.92	-2.81	-12.8	-9.27
COC(=O)c1cc2n(n1)CC(C)(C(=O)NC1CCCCCC1)N(c1cccc(SC)c1)C2=O (stereo not given)	-3.25	2.67	-7.68	-2.47	-2.56
O=[S+]([O-])(Nc1ccccc1)c1ccc2c(c1)OCCN(Cc1cncnc1)C2	-15.7	-7.05	-4.36	-12	-36.6
CCCc1nnc(NC(=O)C2CC(=O)N(c3n[nH]c4cc(Br)ccc34)C2)s1 (stereo not given)	-5.93	-8.57	-2.06	-21.2	-14.5
CC(C)CCNC(=O)C1(C)Cn2c(cc3ccccc32)C(=O)N1Cc1ccc(Cl)cc1 (stereo not given)	7.96	0	10.3	7.39	1.64
CCN(CC)C(=O)C[C@@H]1CCNC[C@@H]1Cc1cc(-c2ccccn2)on1	-6.17	-4.9	-7.24	-5.44	-2.85
CCN(CCn1cccn1)Cc1ccccc1OCC(O)CN1CCCCC1 (stereo not given)	0.028	-5.67	-7.85	-2.99	0.719
COC1CCOC2(CCN(C(=O)Cc3ccccc3)CC2)C1 (stereo not given)	1.23	1.3	2.95	-1.04	2.2
COc1cccc(N2C(=O)c3cc4ccccc4n3CC2(C)C(=O)NC2CCCC2)c1 (stereo not given)	-1.48	0.294	1.95	0.752	1.39
Cc1[nH]c(/C=C2\C(=O)Nc3ccc(F)cc32)c(C)c1C(=O)NC[C@H](O)CN1CCOCC1	-13.9	17.9	-11.6	4.28	0.914
CCC(C)NC(=O)c1ccc2c(=O)n(C(C)C)c3nn(Cc4cccc(Cl)c4)c(=O)n3c2c1 (stereo not given)	-4.63	6.71	-4.36	-3.59	-0.16
COc1cccc(CNc2nc3c(S(=O)(=O)c4ccc(F)cc4)nnn3c3ccccc23)c1	-7.82	2.54	-0.007	-5.27	-7.06
CCN(CC)Cc1ccc(C(=O)N(CCc2ccccc2OC)[C@@H]2CCNC2)cc1	-6.26	4.39	-22.1	-12.3	0.451
Cc1ccc(Cl)cc1N1CCN(C(=O)CCc2nnc3n(CC(C)C)c(=O)c4ccccc4n23)CC1	-16.3	4.5	2.7	-19.6	-3.03
CC(C)COC(=O)c1ccc2c(c1)C1C=CCC1C(c1ccc(F)cc1)N2 (stereo not given)	-9.31	-4.29	-6.49	-12.8	-10.6
